# Whole data set: some 33,000 sequences, median “E-score (-0.5 to 0.5)” near -0.01, cut for the highest 2% near 0.26. The list shows a part of the results.
# Target: Ste12 (UniProt P13574)
# Assay: PBM E-score (8-mer binding enrichment) (E-score (-0.5 to 0.5)); higher = stronger / more preferred TF binding; most listed sequences are background and not binding sites
# Conditions: protein concentration: 200 nM; construct: GST-DNA-binding domain
# How it was run: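 Detection of bound protein used fluorescent anti-GST, with scans normalised by masliner. The proteins were GST-tagged yeast transcription factors applied at about 100-200 nM to universal all-10-mer Agilent arrays made double-stranded by primer extension. Each ungapped eight-base word, pooled with its reverse complement, was scored with an E-score from the Universal PBM Analysis Suite.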
row,Sequence,PBM E-score
1,ACTCTGCC,-0.109
2,AAAAGACA,0.146
3,ACGCACTG,-0.186
4,GCTATTTA,-0.13
5,GAAGCATA,0.0481
6,ATGACGGA,0.0141
7,AATCATCA,0.142
8,CATGGAAA,0.098
9,ACAGCAGG,0.16
10,GAGTGGGA,-0.154
11,CCCATTAA,-0.1
12,CCACGCGG,-0.206
13,GAGCGCTA,-0.0377
14,GCCAGGAA,-0.03
15,AGTGACAT,-0.00427
16,CCAAACAG,-0.0043
17,GAGTAGAC,-0.084
18,CAAAGCTC,-0.115
19,GACCGTCC,-0.189
20,AACACGTA,-0.00756
21,AACGTAGG,-0.223
22,GTTATCCA,0.00092
23,CCATAGAC,-0.0106
24,CCAGTTAA,0.0557
25,AATTCATA,0.129

row,Sequence,PBM E-score
1,CCTATTGA,-0.0128
2,AGACCTAT,0.0452
3,AAGCCCAT,-0.103
4,AACATCAT,0.0944
5,AAGGCCAA,-0.267
6,CTGCCTTC,-0.147
7,GCTCACCC,0.0411
8,CGGGTCAG,0.0171
9,CGCGAAAG,-0.00187
10,CTTACTAA,0.0533
11,GATGAGAC,0.175
12,CGTGTATA,-0.0309
13,ATAGCGCA,-0.0209
14,GCGCAAGA,-0.0203
15,TACGATCA,0.0568
16,ATGTCTTG,-0.0211
17,AAGCGAAG,0.102
18,AGTGAATG,0.209
19,ACAATCAT,-0.0149
20,CTCTGAGA,0.159
21,GACTCTTA,0.116
22,CCCTGAAC,0.0241
23,AACAAAAG,0.119
24,GAGCTAGA,-0.0457
25,AGGCGTCC,-0.0703

row,Sequence,PBM E-score
1,GGCGGAAC,-0.021
2,CATCCAGC,0.0067
3,CCATGGCC,0.0296
4,AGCTTGCG,-0.151
5,AATGTAGA,-0.0184
6,AGAGTTAG,-0.00836
7,CTGTATAA,-0.00491
8,TGTACAAA,0.0309
9,AGCTCTGC,-0.366
10,GCTTGTAC,0.0617
11,CAATTGGC,0.109
12,CCGGAGCA,-0.0401
13,ACCGAACA,0.172
14,ATTCATAG,-7e-05
15,AAAGTGCG,0.0163
16,GTATCCAC,-0.232
17,TTAGCAAA,0.168
18,GCGCCAGA,-0.143
19,TCCATTAA,0.156
20,CTCAAAAG,0.161
21,CGTATGCC,-0.282
22,TACCGCCA,0.172
23,GACATAGA,0.0743
24,AGTCATCG,-0.0443
25,TCGTGTAA,0.0344

row,Sequence,PBM E-score
1,GACGGAGA,-0.0869
2,ACTAACCC,0.00258
3,CTGAGAAG,-0.289
4,ATTGCCCA,-0.122
5,GAGCCGAC,-0.164
6,CGCCTATA,0.012
7,GCCTTAGA,0.0798
8,CCTACACC,-0.0295
9,CATATGGA,-0.0446
10,TGACGCCA,-0.0754
11,AAATTAAT,0.261
12,AAGCGAAT,0.0373
13,AACTTTAC,-0.0461
14,ATGCACCA,-0.0677
15,CACTCGGC,0.103
16,AGTCTTTC,-0.0904
17,CCTCGGGA,-0.0421
18,AACTACTC,0.058
19,CCGGTAGG,-0.265
20,GCTTCTCA,-0.165
21,ACGCCTGG,-0.0321
22,GTTTTTTA,0.149
23,AGCTTCAT,0.146
24,CGACCCGC,-0.145
25,CCATATCA,-0.0565

row,Sequence,PBM E-score
1,CGGGCAAC,-0.187
2,GTACCACA,0.0365
3,CATAATAG,0.0435
4,CCGAGTCC,-0.0874
5,AAGATGCA,0.0243
6,AGACGAAA,0.155
7,CCAGCGCC,-0.122
8,AATCCCAT,-0.0733
9,CGAGATCG,-0.166
10,GATCCCGC,0.00584
11,TAATTGAA,0.0688
12,ATAAATGA,0.189
13,CGCCTTTC,-0.105
14,GGATACCC,-0.124
15,CGCGTCCA,-0.194
16,GCCGTAAA,-0.0729
17,CAATCGTG,-0.0456
18,CCGGGGCG,0.122
19,CATCCACG,-0.121
20,GCCATGCA,-0.0325
21,ATTCTTTA,0.13
22,CCACAACG,-0.00877
23,TATCCGGA,0.0347
24,GGAGAAAA,0.0218
25,AGATGACA,0.048

row,Sequence,PBM E-score
1,TCATCTAA,0.0571
2,CAGAGCTG,-0.0396
3,AATCAGAC,0.088
4,CTGGGAAA,0.0706
5,AGTCATAA,-0.00815
6,CACCGTCA,0.0887
7,AGATTGCG,0.0433
8,GCGCGCTA,0.0946
9,GTATCTCA,0.0995
10,GGTCGAAC,-0.105
11,GGTAGTAA,-0.123
12,AAGGTCGA,0.0679
13,ACGACCGC,-0.162
14,CAGTGGCC,-0.161
15,CCCCTTGC,-0.0401
16,CAAATAGC,-0.0162
17,CTCCTGTA,-0.0349
18,CGCAAACA,0.053
19,CTTATAAA,0.223
20,TCAGAAGA,-0.121
21,GTCTAGTA,0.102
22,ATGGCTGC,-0.0626
23,ACGGAACG,0.226
24,ACTAGTTA,0.027
25,CCTAATAC,-0.103

row,Sequence,PBM E-score
1,ACCGGAGT,-0.169
2,GGCTTTAC,0.0754
3,GTGTACAA,0.137
4,AGGAGAAA,-0.0464
5,CTCTATGA,-0.164
6,AAATTGCG,0.112
7,AATAGACA,-0.137
8,GACCACTA,-0.0701
9,GAATAACA,0.122
10,ATCAGTCA,-0.164
11,ATGAACTC,-0.105
12,CTCTTAGC,0.0397
13,CAGTGCCA,-0.238
14,AGGTTTGG,0.0481
15,ACAAGTCC,-0.232
16,ATCTAGAT,-0.232
17,GATTAAGA,0.114
18,AATACCAA,0.0182
19,GGATCAGA,-0.0442
20,AACTAATC,0.094
21,CTATGTAC,-0.159
22,GAGACGGC,-0.0738
23,CGGCACCA,0.09
24,GAAGCTTA,-0.072
25,AACTGACA,0.132

row,Sequence,PBM E-score
1,ATTACCAC,0.0728
2,AGGAAAAT,0.177
3,AATATATC,0.0719
4,GAACGGTC,-0.0586
5,TCTTTTCA,0.106
6,ACGCTCCC,0.0475
7,AAGCCATA,-0.124
8,AATGCCTG,-0.0458
9,AGCGGTCC,-0.0901
10,TACGTGAA,0.0978
11,CTAAGGGA,-0.0343
12,CTACTCAG,-0.125
13,GCGGCCTA,-0.0793
14,AAAATTAA,0.134
15,CTTTCACA,0.0992
16,AACAAGAG,0.108
17,CATGCCAC,-0.0903
18,GCCCTTAA,-0.00306
19,GAAGGGTC,-0.287
20,GGGAGCCA,-0.0911
21,AGATAGTA,-0.0431
22,AGCGGCGC,-0.133
23,CGACATCA,-0.0385
24,AAAGCCGG,0.122
25,AGACATAT,0.0461

row,Sequence,PBM E-score
1,CACTCGTC,-0.00321
2,GAACTACA,-0.146
3,GTGATCCA,-0.167
4,TATCGACA,0.051
5,ACAAGTCT,0.0297
6,CCCGACGG,-0.134
7,ATAAGTTC,0.0815
8,TATCGCCA,-0.111
9,CATCACAA,0.0823
10,CGGAGTTC,0.0765
11,AATTGTGA,0.0664
12,AGTCCCAA,0.0686
13,ATGAAACC,0.457
14,CGAGGTTC,-0.0308
15,AGGTTACC,0.0494
16,CGATTCCA,0.0118
17,AACATTCC,-0.0933
18,AACCTTTG,-0.155
19,GGCCGCCC,-0.0363

# — the supplement of paper PMC3334620
